Reference: the RNAGym collection of RNA variant scans (doi:10.7554/elife.90254)
Read counts are not given, so values of variants with three or more changes are uncertain.

B1: OR4K15 (parent)
chain: GUUAACGGUCAUAGGCCAUGGAAACUAGGAGCACCAUUUCGCUGCCAGUGAAGAAAUGAACAAAGAAAAUCUGGGCCAGGCAGGCAUCAAAAGAAAUAGUCUUGCGCUCAACCAGAAAGUCUGUAAUCAUUUUAAGGGUA

Variants of: B1
Assay: self-cleavage, relative activity (ratio to wild type); higher = more cleavage; in vitro, sequencing; the parent is a self-cleaving ribozyme

| Variant | self-cleavage |
| --- | --- |
| U70C A96G U102C | 1.18 |
| C17U C40A A51U A55U A63G A69C | 0.6 |
| U19C A78G A91G | 0.21 |
| A33G A56G A66G U103G | 0.05 |
| A18G U49A A64G U100C | 2 |
| A36U U72A A89U | 0 |
| C34U A47U U108C | 0 |
| A54G A89U U132C | 1.46 |
| A96G A114G U132C | 0.15 |
| A51U A69G U72C A134G | 0.24 |
| A78G A125U U130C | 0.26 |
| U102C U108C A114U A116G | 0.01 |
| A36G A52U A118G | 1.29 |
| U3C A51G A62G U131C | 0.5 |
| A27G A94G A129C | 0.79 |
| A60G A68G A118G | 0.68 |
| U39G U43C A110G A114G A118U | 0.02 |
| U38C A47G A86C A117G | 0.44 |
| U3C U103C A126G | 0.43 |
| U2C A89G U133C | 1.57 |
| A22G A24G A36U U37A A82G A111G | 0.09 |

| Variant | self-cleavage |
| --- | --- |
| A59U U139A A140G | 1.36 |
| U12C C25A A52G A91G | 1.29 |
| A22G A64G U108C | 0 |
| A22C A54C U130G | 0.34 |
| A62G A66C U120C A129G | 0.96 |
| A23G A55G A110G A126G | 0.12 |
| A22G A52G G136A | 0.95 |
| A22U A89G C112U | 0.01 |
| A94U U100A U122C | 0.71 |
| A52G A82G A118G | 0.21 |
| U2C A18U A69U U131C | 0.86 |
| U9C A24U A27G A66U A140G | 1.59 |
| A23G U72A A78G U87C | 0.39 |
| U49C A69G U108C | 0.01 |
| A30G A51G A98U | 1.94 |
| A60G A69C A114U | 0.02 |
| C10U C42U G136A | 1.23 |
| A114G U132C G137A | 0.88 |
| A89U C113A A117G U127A | 0.02 |
| A22G A63G A68G U97G A111U | 0.11 |
| U57C A59G A94G | 2.16 |

| Variant | self-cleavage |
| --- | --- |
| U38C A60G U72G | 0.18 |
| U38C U72C A82U | 0.18 |
| A30G U72C A126G U131C | 0.12 |
| A23G A86G U100C | 1.47 |
| A54G A86G A117G | 1.07 |
| A18C U57C A69G A94G | 0.75 |
| U49C A62G C85G A92G | 0.46 |
| U26C A126G U131C | 0.47 |
| A11G U43A A117G | 1.19 |
| G20A A47U G136U | 1.09 |
| A22U A52U U100C A125G U130C | 1.19 |
| A30U A66G U122C U132C | 1.21 |
| A59G A68G U70C | 0.11 |
| A33U A78G A82G | 0.24 |
| A13G A23G A110G A116G | 0.05 |
| A13G U49G A90U | 0.73 |
| U57C A129C U130C | 0.87 |
| A5U A60U A89G | 1.67 |
| A62G A68G U102C | 1.43 |
| A89U U102C A129U | 1.88 |
| A18G A54G A78U A90C A91G | 0.16 |

| Variant | self-cleavage |
| --- | --- |
| U38C U39A A94G A114G | 0.65 |
| A59U A86G A96G C121U | 0.93 |
| U2C A33C A86G | 0.99 |
| A23G A68G A129G | 1.22 |
| U12C A18U A68U A94G | 0.79 |
| U9A U37C A51G A56C | 1.69 |
| A22G A24G A63U U130C | 0 |
| A69U U87C U108C A118G | 0.01 |
| U72C U100C U108C | 0.02 |
| A30G A60U A96U | 1.74 |
| A52G U70C A118U | 0.52 |
| G7A U43C U87C A140G | 1.29 |
| A23G U39C U87A A96U | 1.21 |
| U9C A86G A98G | 0.7 |
| A22G A51G A91G A92G A96G U108C U124C U127C | 0 |
| A52G A66G A94U A114G U130C | 0.1 |
| A56G A64G U108A | 0.03 |
| A51G A63U A89G U131C | 1 |
| U37C A69G U87C U127A | 1.15 |
| U37G A66C U72A U97C | 0.1 |
| A22U A69G A78G U120C | 0.1 |
